# This is one part of the list.
# B1: TIM1 (protein)
# chain: ADGIQSVKVGGEAGPSVTLPCHYSGAVTSMCWNRGSCSLFTCQNGIVWTNGTHVTYRKDTRYKLLGDLSRRDVSLTIENTAVSDSGVYCCRVEHRGWFNDMKITVSLEIVPPHHHHHH
# Tests used:
# Test in all cases: glycan array binding signal (z-score within array); higher = stronger binding
# Conditions in all cases: glycan notation: IUPAC condensed, linker removed
# Gal6S(b1-4)Glc6S = target: Gal6S(b1-4)Glc6S
# In short: (§1)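 The Consortium for Functional Glycomics database supplied 3228 glycan arrays, of which those lacking an available protein sequence were dropped. The binding signal, a within-array Z-score, was averaged across arrays of the same protein sequence and across linkers. Negative scores can be read as non-binding.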
# Gal6S(b1-4)GlcNAc = target: Gal6S(b1-4)GlcNAc
# In short: as §1
# Gal6S(b1-4)GlcNAc6S = target: Gal6S(b1-4)GlcNAc6S
# In short: as §1
# GalNAc(a1-3)Gal = target: GalNAc(a1-3)Gal
# In short: as §1
# GalNAc(a1-3)GalNAc = target: GalNAc(a1-3)GalNAc
# In short: as §1
# [1] = target: GalNAc(a1-3)GalNAc(b1-3)Gal(a1-4)Gal(b1-4)Glc
# In short: as §1
# [2] = target: GalNAc(a1-3)GalNAc(b1-3)Gal(a1-4)Gal(b1-4)GlcNAc
# In short: as §1
# GalNAc(b1-3)Gal = target: GalNAc(b1-3)Gal
# In short: as §1
# [3] = target: GalNAc(b1-3)Gal(a1-4)Gal(b1-4)GlcNAc
# In short: as §1
# [4] = target: GalNAc(b1-3)Gal(a1-4)Gal(b1-4)GlcNAc(b1-3)Gal(b1-4)Glc
# In short: as §1
# [5] = target: GalNAc(b1-3)Gal(a1-6)Gal(b1-4)Glc
# In short: as §1
# GalNAc(b1-3)GalNAc = target: GalNAc(b1-3)GalNAc
# In short: as §1
# GalNAc(b1-3)GlcNAc = target: GalNAc(b1-3)GlcNAc
# In short: as §1
# GalNAc(b1-4)Gal(b1-4)Glc = target: GalNAc(b1-4)Gal(b1-4)Glc
# In short: as §1
# GalNAc(b1-4)GlcNAc = target: GalNAc(b1-4)GlcNAc
# In short: as §1
# [6] = target: GalNAc(b1-4)GlcNAc(b1-2)Man
# In short: as §1
# [7] = target: GalNAc(b1-4)GlcNAc(b1-2)Man(a1-3)[GalNAc(b1-4)GlcNAc(b1-2)Man(a1-6)]Man(b1-4)GlcNAc(b1-4)GlcNAc
# In short: as §1
# [8] = target: GalNAc(b1-4)GlcNAc(b1-3)GalNAc(b1-4)GlcNAc
# In short: as §1
# GalNAc(b1-4)GlcNAc6S = target: GalNAc(b1-4)GlcNAc6S
# In short: as §1
# GalNAc(b1-6)GalNAc = target: GalNAc(b1-6)GalNAc
# In short: as §1
# GalNAc3S(b1-4)GlcNAc = target: GalNAc3S(b1-4)GlcNAc
# In short: as §1
# GalNAc3S(b1-4)GlcNAc3S = target: GalNAc3S(b1-4)GlcNAc3S
# In short: as §1
# [9] = target: GalNAc3S(b1-4)[Fuc(a1-3)]GlcNAc
# In short: as §1
# GalNAc4S6S(b1-4)GlcNAc = target: GalNAc4S6S(b1-4)GlcNAc
# In short: as §1
# GalNAc6S(b1-4)GlcNAc = target: GalNAc6S(b1-4)GlcNAc
# In short: as §1
# Glc(a1-4)Glc = target: Glc(a1-4)Glc
# In short: as §1
# [10] = target: Glc(a1-4)Glc(a1-4)Glc(a1-4)Glc
# In short: as §1
# Glc(a1-6)Glc(a1-6)Glc = target: Glc(a1-6)Glc(a1-6)Glc
# In short: as §1
# [11] = target: Glc(a1-6)Glc(a1-6)Glc(a1-6)Glc
# In short: as §1
# Glc(b1-4)Glc = target: Glc(b1-4)Glc
# In short: as §1
# Glc(b1-6)Glc = target: Glc(b1-6)Glc
# In short: as §1
# GlcA(b1-3)Gal = target: GlcA(b1-3)Gal
# In short: as §1
# GlcA(b1-3)GlcNAc = target: GlcA(b1-3)GlcNAc
# In short: as §1
# GlcA(b1-6)Gal = target: GlcA(b1-6)Gal
# In short: as §1
# [12] = target: GlcA3S(b1-3)Gal(b1-4)GlcNAc(b1-2)Man
# In short: as §1
# [13] = target: GlcA3S(b1-3)Gal(b1-4)GlcNAc(b1-3)Gal(b1-4)Glc
# In short: as §1
# [14] = target: GlcNAc(a1-3)Gal(b1-4)GlcNAc
# In short: as §1
# [15] = target: GlcNAc(a1-4)Gal(b1-3)GlcNAc
# In short: as §1
# [16] = target: GlcNAc(a1-4)Gal(b1-4)GalNAc
# In short: as §1
# [17] = target: GlcNAc(a1-4)Gal(b1-4)GlcNAc
# In short: as §1
# [18] = target: GlcNAc(a1-4)Gal(b1-4)GlcNAc(b1-3)Gal(b1-4)Glc
# In short: as §1
# [19] = target: GlcNAc(a1-4)Gal(b1-4)GlcNAc(b1-3)Gal(b1-4)GlcNAc
# In short: as §1
# [20] = target: GlcNAc(a1-4)Gal(b1-4)GlcNAc(b1-3)Gal(b1-4)GlcNAc(b1-3)Gal(b1-4)GlcNAc
# In short: as §1
# [21] = target: GlcNAc(a1-4)Gal(b1-4)GlcNAc(b1-3)Gal(b1-4)[Fuc(a1-3)]GlcNAc(b1-3)Gal(b1-4)[Fuc(a1-3)]GlcNAc
# In short: as §1
# [22] = target: GlcNAc(a1-6)Gal(b1-4)GlcNAc
# In short: as §1
binder,measurement,setting,value
B1,glycan array binding signal (z-score),Gal6S(b1-4)Glc6S,0.013
same,glycan array binding signal (z-score),Gal6S(b1-4)GlcNAc,-0.175
same,glycan array binding signal (z-score),Gal6S(b1-4)GlcNAc6S,-0.015
same,glycan array binding signal (z-score),GalNAc(a1-3)Gal,-0.084
same,glycan array binding signal (z-score),GalNAc(a1-3)GalNAc,-0.218
same,glycan array binding signal (z-score),[1],-0.178
same,glycan array binding signal (z-score),[2],-0.2
same,glycan array binding signal (z-score),GalNAc(b1-3)Gal,-0.235
same,glycan array binding signal (z-score),[3],0.287
same,glycan array binding signal (z-score),[4],-0.182
same,glycan array binding signal (z-score),[5],-0.257
same,glycan array binding signal (z-score),GalNAc(b1-3)GalNAc,-0.14
same,glycan array binding signal (z-score),GalNAc(b1-3)GlcNAc,-0.188
same,glycan array binding signal (z-score),GalNAc(b1-4)Gal(b1-4)Glc,-0.124
same,glycan array binding signal (z-score),GalNAc(b1-4)GlcNAc,0.209
same,glycan array binding signal (z-score),[6],-0.239
same,glycan array binding signal (z-score),[7],-0.156
same,glycan array binding signal (z-score),[8],-0.249
same,glycan array binding signal (z-score),GalNAc(b1-4)GlcNAc6S,-0.155
same,glycan array binding signal (z-score),GalNAc(b1-6)GalNAc,-0.136
same,glycan array binding signal (z-score),GalNAc3S(b1-4)GlcNAc,-0.201
same,glycan array binding signal (z-score),GalNAc3S(b1-4)GlcNAc3S,-0.095
same,glycan array binding signal (z-score),[9],-0.172
same,glycan array binding signal (z-score),GalNAc4S6S(b1-4)GlcNAc,-0.102
same,glycan array binding signal (z-score),GalNAc6S(b1-4)GlcNAc,-0.269
same,glycan array binding signal (z-score),Glc(a1-4)Glc,-0.198
same,glycan array binding signal (z-score),[10],-0.129
same,glycan array binding signal (z-score),Glc(a1-6)Glc(a1-6)Glc,-0.212
same,glycan array binding signal (z-score),[11],0.029
same,glycan array binding signal (z-score),Glc(b1-4)Glc,-0.208
same,glycan array binding signal (z-score),Glc(b1-6)Glc,0.159
same,glycan array binding signal (z-score),GlcA(b1-3)Gal,-0.039
same,glycan array binding signal (z-score),GlcA(b1-3)GlcNAc,-0.181
same,glycan array binding signal (z-score),GlcA(b1-6)Gal,-0.106
same,glycan array binding signal (z-score),[12],-0.13
same,glycan array binding signal (z-score),[13],-0.033
same,glycan array binding signal (z-score),[14],-0.215
same,glycan array binding signal (z-score),[15],-0.196
same,glycan array binding signal (z-score),[16],0.413
same,glycan array binding signal (z-score),[17],-0.116
same,glycan array binding signal (z-score),[18],-0.203
same,glycan array binding signal (z-score),[19],-0.125
same,glycan array binding signal (z-score),[20],-0.259
same,glycan array binding signal (z-score),[21],2.32
same,glycan array binding signal (z-score),[22],-0.256

# From the supplement of paper PMC8728848
